Hit rate of the full screen: of about 360,000 compounds, about 6,000 (1.7%) were called active. This list was built around the results that the source calls inconclusive (neither active nor inactive); the mix of calls is not that of the screen. Calls follow the shape of the dose curve; as a rule, active = well fitted cell-killing curve with a large enough effect; inconclusive = small, poorly fitted or top-dose-only effect, or effect the other way; inactive = flat fitted curve, though single readings scatter. Potencies of inconclusive entries are left out as doubtful fits.
experiment: qHTS for induction of synthetic lethality in tumor cells producing 2HG: qHTS for the HT-1080-NT fibrosarcoma cell line; details: HT-1080-NT fibrosarcoma viability, CellTiter-Glo ATP luminescence, 48 h; series mostly up to 46.1 µM;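 also: NT is the 2HG producing partner of a matched IDH1 knockdown line; nearly all actives have a fitted effect of over 55% in size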
Procedure, shortened: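 Viability of the 2HG-overproducing fibrosarcoma line after 48 hours of compound exposure at 37 degrees C was determined by luminescence with CellTiter-Glo, and concentration-effect curves were then fitted and categorized.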
Potency is read from the fitted curve at half-maximal effect; tags tell the direction and shape of the fitted curve.

Compound	Potency
COc1ccc(-n2nnnc2C(c2cccs2)N2CCN(C/C=C/c3ccccc3)CC2)cc1 (configuration not stated)	inconclusive [cytotoxic, partial curve]
Cn1c(Sc2ccc(Cl)cc2)c(C=O)c2ccccc21	inconclusive [cytotoxic, single point]
CN(C)CCNc1cccc2sc3ccc(O)cc3c(=O)c12	active: 9.2 µM
CCOc1cc(C2C3=C(CCCC3=O)Nc3ccc4ncccc4c32)ccc1O (configuration not stated)	inconclusive [cytotoxic, partial curve]
CCC(NC(=O)NC1CCCCC1)c1ccccc1 (configuration not stated)	inactive
COc1cccc(C(=O)Nc2sc3c(c2C(=O)O)CCCC3)c1	inconclusive [cytotoxic, single point]
COc1ccc2cc(C#N)c(N3CCN(C(=O)c4ccccc4C)CC3)nc2c1	inconclusive [cytotoxic, single point]
COc1ccc(OC)c(CCNC(=O)c2ccc(CS(=O)(=O)c3ccc(Br)cc3)o2)c1	inactive
Cc1cc(C(=O)NNc2ccc(F)cc2F)no1	active: 3.66 µM
Cc1ccc(C(=O)NCCc2nnc3ccc(N4CCCC4)nn23)cc1	inactive
CC1(C)CC2(C)OC2C2(C1)N=NC(=Nc1ccccc1)O2 (configuration not stated)	active: 9.2 µM
O=C(Nc1cccc(NC(=O)c2cccs2)c1)c1ccc([N+](=O)[O-])o1	active: 10.3 µM
Cc1cccc(NC(=O)c2cc(-c3cccnc3)nc3c(C)cccc23)n1	inconclusive [cytotoxic, single point]
Cc1ccc(C(=O)Nc2cccc(C(=O)O)c2)cc1S(=O)(=O)N1CCCCC1	inactive
NC(c1csc(NC(=O)Nc2ccccc2Cl)n1)C1CCCCC1 (configuration not stated)	inconclusive [cytotoxic, single point]
N#CCCn1c(C(C#N)(CCC#N)CCC#N)nc2ccccc21	inactive
Cc1ccc(-c2nc3ccc(Cl)cn3c2Cc2cccc(Cl)c2)cc1	inconclusive [cytotoxic, single point]
OC(c1cccc(F)c1)c1ncc(-c2ccc(Oc3ccccc3)cc2)[nH]1 (configuration not stated)	active: 16.4 µM
CC(O)Cn1c(=O)c2c(nc(Br)n2Cc2ccccc2)n(C)c1=O (configuration not stated)	active: 14.1 µM
CCOC(=O)C1(CCc2ccccc2)CCN(Cc2c(O)cccc2OC)CC1	inconclusive [cytotoxic, partial curve, poor fit]
Nc1cccc(-c2nc3ccc(C(=O)c4ccccc4)cc3[nH]2)c1	active: 13 µM
Cc1cc(Cl)ccc1OCCCC(=O)NO	active: 20.6 µM

Source: PubChem BioAssay AID686970 (National Center for Advancing Translational Sciences (NCATS), 2013)
